The record followed here is PMC9925316.

Chains of the proteins cited; added tags and fusions are not shown. Lines headed by an entry give the natural chain unless they say otherwise; changes in a name come on top.
UniProt P15559: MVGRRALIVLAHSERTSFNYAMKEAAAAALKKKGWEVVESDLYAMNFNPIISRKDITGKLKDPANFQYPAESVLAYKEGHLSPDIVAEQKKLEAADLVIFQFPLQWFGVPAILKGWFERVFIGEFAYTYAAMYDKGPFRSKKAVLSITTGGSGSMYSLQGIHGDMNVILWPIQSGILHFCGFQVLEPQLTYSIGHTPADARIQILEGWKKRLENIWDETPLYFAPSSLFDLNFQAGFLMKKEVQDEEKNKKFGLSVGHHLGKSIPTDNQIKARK
UniProt P05412: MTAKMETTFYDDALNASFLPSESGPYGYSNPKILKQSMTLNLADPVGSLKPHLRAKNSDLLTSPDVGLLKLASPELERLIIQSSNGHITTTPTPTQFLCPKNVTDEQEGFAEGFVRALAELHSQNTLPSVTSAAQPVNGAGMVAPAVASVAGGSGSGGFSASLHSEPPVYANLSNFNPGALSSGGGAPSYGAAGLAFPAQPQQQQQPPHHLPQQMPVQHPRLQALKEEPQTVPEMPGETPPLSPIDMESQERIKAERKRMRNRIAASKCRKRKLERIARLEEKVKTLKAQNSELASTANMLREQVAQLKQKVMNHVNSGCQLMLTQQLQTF
UniProt P01100: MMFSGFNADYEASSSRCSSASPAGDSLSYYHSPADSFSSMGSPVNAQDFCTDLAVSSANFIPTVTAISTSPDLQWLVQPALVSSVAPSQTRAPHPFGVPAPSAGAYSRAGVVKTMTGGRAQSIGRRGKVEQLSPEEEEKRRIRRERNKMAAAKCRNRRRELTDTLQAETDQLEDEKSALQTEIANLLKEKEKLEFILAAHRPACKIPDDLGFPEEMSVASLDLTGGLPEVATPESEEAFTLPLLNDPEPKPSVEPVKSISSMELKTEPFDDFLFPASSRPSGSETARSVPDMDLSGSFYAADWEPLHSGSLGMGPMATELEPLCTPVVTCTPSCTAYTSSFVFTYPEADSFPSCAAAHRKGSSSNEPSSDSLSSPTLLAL

Test [1] deals with NQO1-myc-His6 (NAD(P)H:quinone oxidoreductase 1) (human) (UniProt P15559). Briefly: pull-down; His6-tagged NQO1 affinity-purified and conjugated to Ni-NTA resin; resin incubated 2 h at 4°C with 1 mg total protein of cells expressing EGFP-c-Fos deletion constructs; immunoblot with anti-NQO1 and anti-GFP; only the target purified. A general note: In western blotting, separated proteins are transferred to a membrane and probed.

In test [2] the target is c-Jun, endogenous (human (endogenous in a human cancer cell line)) (UniProt P05412). Put plainly: co-IP; endogenous co-IP with rabbit monoclonal anti-c-JUN (Figure S14); lysis in ice-cold RIPA/PBS (33% v/v); cells not given.
For test [3], the target named is c-Fos, endogenous (human (endogenous in RKO)) (UniProt P01100). Briefly: co-IP; endogenous proteins, whole-cell extracts of RKO/pshCont cells; lysis in ice-cold RIPA/PBS (33% v/v); IP with anti-NQO1, anti-c-Fos or IgG; immunoblot with anti-NQO1 and anti-c-Fos.
For test [4], the target named is EGFP-c-Fos fusion protein (human) (UniProt P01100). Put plainly: co-IP; MDA-MB-231 cells transfected with pNQO1-myc-His6 and pEGFP-c-Fos; lysis in ice-cold RIPA/PBS (33% v/v); IP with anti-His6, anti-GFP or normal IgG overnight at 4°C, Protein G-magnetic beads; immunoblot with anti-NQO1 and anti-c-Fos.

These are yes or no findings as the source states them, for the method shown. In cells and extracts the contact can be indirect. Some results given as binding are weak or reduced against the parent protein; the word gives no strength.

With “EGFP-c-Fos deletion mutant, residues 1-140 (from UniProt P01100 1-140) (domain or fragment)”, in test [1], the binding entry is “no binding”.

In the case of “EGFP-c-Fos deletion mutant, residues 137-164 (DNA-binding domain) (from UniProt P01100 137-164) (domain or fragment)”, the binding result in test [1] is listed as “binds”.

“EGFP-c-Fos deletion mutant, residues 161-198 (from UniProt P01100 161-198) (domain or fragment)”: in test [1], the binding entry is recorded as “no binding”.

Consider “EGFP-c-Fos deletion mutant, residues 196-380 (from UniProt P01100 196-380) (domain or fragment)”, for which the binding result in test [1] is recorded as “no binding”.

On to “NQO1, endogenous (from UniProt P15559 1-274) (enzyme)”, for which the binding result in test [2] is recorded as “no binding”; in test [3] it was “binds”.

As to “NQO1-myc-His6 (NAD(P)H:quinone oxidoreductase 1) (from UniProt P15559 1-274) (enzyme)”, in test [4], the binding result is “binds”.
